Data as given in PubChem BioAssay AID1347417 (National Center for Advancing Translational Sciences (NCATS), 2020).
The campaign covered roughly 120,000 compounds. About 5,300 (4.4%) were called active. The shares of active, inactive and inconclusive entries below differ from those in the screen. Calls follow the shape of the dose curve; as a rule, active = well fitted inhibition curve with a large enough effect; inconclusive = small, poorly fitted or top-dose-only effect; inactive = no such curve, though single readings can be large or run the other way. A potency beside an inconclusive call is a rough fit, not a confirmed value.

Assay: qHTS Primary assay for Inhibitors of Plasmodium falciparum Dd2 growth in vitro; also: nearly all actives have a fitted effect of over 65% in size;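 as to activity, negative = inhibition: plate controls were DMSO vehicle for no effect and reference drug for full effect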
Conditions: P. falciparum Dd2 growth, SYBR Green, 72 h; activity, negative = inhibition: at 28.9 µM (top of the series) unless noted; series mostly up to 28.9 µM
Outline: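 Infected erythrocytes (Dd2, 0.3% parasitemia, 2.5% hematocrit final) are added to compound in RPMI-1640/Albumax II medium, grown 72 h at 37C in low oxygen, then lysed with saponin/Triton-X containing SYBR Green and read by fluorescence.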
Potency is read from the fitted curve at half-maximal effect; tags tell the direction and shape of the fitted curve.

Row | Compound | activity, negative = inhibition | Potency
1 | NS(=O)(=O)c1ccc(NC(=O)COc2ccc(S(=O)(=O)NC3CCCCC3)cc2)cc1 | inactive: 7.37% | 
2 | CCOC(=O)CSc1nc2cc(OC)c(OC)cc2c2nc(-c3ccccc3)nn12 |  | inconclusive: 1 µM [inhibitor, single point]
3 | Cc1cc(NC(=O)c2cc(Cl)ccc2Cl)ccc1-c1cc2ccccc2oc1=O |  | active: 11.2 µM
4 | O=C(NC1CCCN(c2cc(-c3ccc(Cl)cc3)[nH]n2)C1)c1ccc(Br)o1 (stereo unspecified) |  | inconclusive: 0.501 µM [inhibitor, full curve, poor fit]
5 | CCOC(=O)C1=C(C)N=C2SCCC(=O)N2C1c1ccc(OCc2ccccc2)c(OC)c1 (stereo unspecified) |  | inconclusive: 12.6 µM [inhibitor, partial curve, poor fit]
6 | CCOC(=O)c1oc2ccc(S(=O)(=O)N3CCCCCCNC(=O)[C@@H]4CCC[C@@H]43)cc2c1C |  | inconclusive: 5.01 µM [inhibitor, partial curve, poor fit]
7 | CC1(C)C[C@H](NC(=O)c2cccnc2)[C@@]2(CCC(=O)NCCN3CCOCC3)CC[C@](C)(O)C[C@@H]12 | inactive: -34.5% | 
8 | COc1ccc(F)cc1S(=O)(=O)Nc1ccc2c(c1)CCCN2C(=O)c1cccs1 |  | inconclusive: 10 µM [inhibitor, partial curve, poor fit]
9 | O=C1CCN(Cc2ccc(C(F)(F)F)cc2)CCCCCCN1 |  | inconclusive: 8.91 µM [inhibitor, single point]
10 | CN1CCN(C(=O)Cc2c[nH]c3ncc(-c4ccccc4Oc4ccccc4)cc23)CC1 |  | inconclusive: 5.62 µM [inhibitor, single point]
11 | CCn1c2c(c(=O)n3ncc(C(=O)N4CCN(c5ccc(C(C)=O)cc5)CC4)c13)CN(Cc1ccc(OC)cc1)CC2 |  | active: 10 µM
12 | Cc1ccc(C)c(N2C(=O)N(Cc3cccc(C(F)(F)F)c3)c3ccccc3S2(=O)=O)c1 |  | inconclusive: 17.8 µM [inhibitor, single point]
13 | COc1cc(OC)cc(C(=O)Nc2ccc3nc4n(c(=O)c3c2)CCCCC4)c1 |  | inconclusive: 3.55 µM [inhibitor, partial curve, poor fit]
14 | Cc1cc(C(=O)N2C[C@@H](COCC3CC3)[C@H](c3ccncc3)C2)no1 | inactive: -13.8% | 
15 | Cc1cn2nc(C(=O)NCc3ccccc3F)cc2c(N(C)Cc2ccccc2)n1 |  | inconclusive: 0.794 µM [inhibitor, full curve]
16 | O=C(NC1CCCCC1)[C@H]1O[C@H](CCN2CCN(c3ccccn3)CC2)CC[C@@H]1O |  | inconclusive: 8.91 µM [inhibitor, partial curve, poor fit]
